Measured values: the supplement of paper PMC11417369
The list shows a part of the results.

Tested on: PfHDP1 homeodomain (GST-tagged)
Test: gcPBM binding intensity (ln(normalized median fluorescence intensity)); higher = stronger DNA binding
Procedure, shortened: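 Binding of GST-tagged P. falciparum DNA-binding domains, expressed in E. coli and used at about 25 μg on average, was carried out for 1 h in 1× PBS containing 1% milk, 0.2 mg/ml BSA, 0.5% salmon testes DNA and 0.03% Triton X-100. The target was an Agilent 4 × 180k array of primer-extended double-stranded 36-bp intergenic genomic probes plus negative controls, read with Alexa488 anti-GST antibody at 488 nm. Binding intensity is the highest Masliner-normalised natural-log median intensity across replicate spots of either probe orientation.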

Sequence	gcPBM binding intensity (ln)
TGTAGTCTGGAGAAAAGTACATAGTATCTGGTAGCT [XGTACX_site2031]	6.17
AAATTCCACGGACACACACACATATAAATAAATAAA [CACACA_site4811]	6.98
AACATAAAAAAAATATGTACATATATAATATATATA [XGTACX_site3764]	7.24
TAAAATAAAAAGTTTACACACATATATAATTTTAAT [CACACA_site662]	6.24
GAATTATATAATTAAAGTACATTGTTTATATAATCA [XGTACX_site7246]	6.24
AACCATTTTAAATATGCACACAGATGCACTAACACA [CACACA_site8565]	10.5
ATATATATACTGTGTACACAAATATATATTATATAT [CACACA_site6104]	7.14
TAATTTTTCTTTTATTAACACACATATAAATAAATA [CACACA_site8935]	6.53
AAAAATAAAAAAAGCACACACATATAAATAAATATA [CACACA_site6968]	6.85
TATATGACAAGATAAAGTACAAATTTGTATATATAT [XGTACX_site3027]	7.11
ATATATTTATATATTACACACAATATTGTAGACATA [CACACA_site4669]	7
CCCAATAATTAAACAACACACATATTTATAGGTAAT [CACACA_site7445]	6.9
TTTTTTAAAGATTACTCAAAAAAATAAAAAAATAAA [GTGCAC_negctrl_site222]	6.27
TCGTGAGAAAATATTACACACATTTACTATAGTATC [CACACA_site3444]	6.34
TGAGTTCAACAAAGACGTACAAAACCAAAAATATAA [XGTACX_site8931]	6.75
TTTTTTTTTTTTTTTTGATACATTAACCTACAATGG [GTGCAC_negctrl_site625]	6.58
GATAATTTATTTTTTCGTACACAAAATATAATATAT [XGTACX_site1470]	6.45
TATATATCAAGACACACACACATATATTTATTTATA [CACACA_site7733]	6.99
TCCTTTCAACCATATATAATGACATGTACTCAAAAA [GTGCAC_negctrl_site417]	6.77

Sequence	gcPBM binding intensity (ln)
CATCCATATAAAATATGTACATATATATATATATAT [XGTACX_site5859]	9.39
TATTTTAGTAAAGGTGGTACTTTTAAGTTCATGTAT [XGTACX_site1854]	6.23
ATTATAAACCATAATTAACACACAAAATAAGTTACA [CACACA_site9057]	6.46
AAAAAAAAAGAAAAATGTACATACATAAATATATAT [XGTACX_site5664]	6.47
AAAAAAAAAAAAAAAAGTACACAAATAGATTTATAT [XGTACX_site3727]	6.48
ATTCTATTTTTTATAAAACCATGTCATCAACATAGG [CACACA_negctrl_site237]	6.7
GGTATACATAATACTTGTACTAGGCAACAATAAGAT [XGTACX_site1437]	6.89
AAGAAGAAAAACCATTGTACGAACTAACATATATAA [XGTACX_site3226]	6.58
TGTTAAAAGAAAAAAAGTACAAAAAATTATACATTT [XGTACX_site467]	5.93
AATATGAATATCTATACACACACATATATATACACA [CACACA_site8459]	6.8
ATTTGTGACCACACAAATAAATAAATAAAAAAAAAA [TGCATGCA_negctrl_site328]	6.14
ATATATTTATATTTGTGTACATATTTATTATATTTA [XGTACX_site404]	6.45
TAATAATAGAAACACACACACATTTTTAATAATACA [CACACA_site1216]	6.83
TATATATATATATTCACACATATAGTATTGTATTTA [CACACA_site5147]	9.1
TATATTTTATATTAGTGTACAAATTTCATTTTTCAT [XGTACX_site2204]	6.18
AATATATATAAAAAAGTGCATTAGGATAACCATATA [GTGCAC_site9590]	8.25
AATCATTTGTTATAAGTCTAAAATTATTAGAATATT [XGTACX_negctrl_site151]	6.26
TTCAATTTTTTAAAGCGTACATATAAAAGTTATATG [XGTACX_site731]	6.25
ATTATTACATATAATGCATGTGCATATATTTTTATA [TGCATGCA_site701]	11

Sequence	gcPBM binding intensity (ln)
AAATTTGGATGACTCAATAAATTATAATATATATAT [CACACA_negctrl_site298]	7.89
ATATTCTTTATATGCATACACACCTAATATAGGGAC [CACACA_site1533]	7.2
TTTTATCATCACATTTGTCAAAAAAAAAAAAAAAAA [CACACA_negctrl_site1296]	6.11
TTATAATAAAAAAATTCCTAAGTCCGTATATATTAT [CACACA_negctrl_site1698]	6.01
TTTTATTTTTATAACAGTACATAAGTAATTGTTCAA [XGTACX_site7574]	6.14
GATTTTATAATTTCTACACACATATAAGAATATTCA [CACACA_site2802]	6.55
TTATGTTCATTATATGCACACATATATATAAATGTA [CACACA_site8947]	9.74
ATATCAAACTAGAATGTGCGCATGCATTCAAGTTTT	6.54
TTTTTTTAAATATATAAGATAAATTTATAAATAAAT [XGTACX_negctrl_site282]	5.97
AAAAAAAATTTCTCAAGTACACAATTTTTTTTTGTT [XGTACX_site5874]	6.26
TTTTTTTTTTTTATATGTACTAATAATCTTTTTTTT [XGTACX_site3552]	6.4
GCTGAAAGGATAAAGGTGCATATTTTTTAAAAAATT [GTGCAC_site9487]	8.76
AATATTTTATATGTAGTGCATTACTATAGGATTTAT [GTGCAC_site9424]	9.25
ACAAAATAAACGGCTGCACACAAGAAGCACAATATT [CACACA_site3690]	7.45
TGTGTCAAATAATTAATGTCATATATATTTTGTATA [CACACA_negctrl_site1479]	6.11
TGCTTATATCTTATAATATTTATACATCATAATAAG [CACACA_negctrl_site629]	6.41
GATAGAAAAAAATAATGTACACACACATATATGTTT [XGTACX_site392]	6.48
GGCAGCAATTTAGTTACACACATATATAGGTATACA [CACACA_site76]	6.77
